Over roughly 33,000 sequences, “E-score (-0.5 to 0.5)” has its median near -0.013; the highest 2% begin near 0.3. The list shows a part of the results.
What follows are sequences tested against T1, Msn1 (UniProt P22148) (assay: PBM E-score (8-mer binding enrichment) (E-score (-0.5 to 0.5)); higher = stronger / more preferred TF binding; most listed sequences are background and not binding sites). Details: protein concentration: 200 nM; construct: GST-full length.
T1 sequence: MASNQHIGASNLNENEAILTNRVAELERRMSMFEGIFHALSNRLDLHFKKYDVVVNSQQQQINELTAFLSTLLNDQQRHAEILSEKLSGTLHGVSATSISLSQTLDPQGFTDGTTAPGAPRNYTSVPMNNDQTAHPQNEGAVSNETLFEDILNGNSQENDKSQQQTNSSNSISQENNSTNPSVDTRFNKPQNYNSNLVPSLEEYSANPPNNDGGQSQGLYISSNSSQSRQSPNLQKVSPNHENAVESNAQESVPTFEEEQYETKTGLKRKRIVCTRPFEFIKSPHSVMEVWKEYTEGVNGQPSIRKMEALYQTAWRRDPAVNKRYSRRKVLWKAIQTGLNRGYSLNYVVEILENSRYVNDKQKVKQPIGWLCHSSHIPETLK
Outline: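 E-scores (a modified Wilcoxon-Mann-Whitney statistic) were assigned by the Universal PBM Analysis Suite to every ungapped eight-base word pooled with its reverse complement. The input came from universal all-10-mer Agilent arrays made double-stranded by primer extension and probed with GST-tagged yeast transcription factors at about 100-200 nM. Fluorescent anti-GST detected bound protein, and masliner normalised the scans.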

Sequence	PBM E-score
ATGTCCAG	0.457
AGAGATGC	-0.094
AGAATTTC	-0.118
ATCCGGTA	0.0578
GCTTATCC	-0.0619
CAATTCGA	0.0373
ATGTACAG	0.185
CGACGTAG	-0.188
CAGTCCAC	-0.236
CCAGGTAG	-0.162
CTTCAAAG	0.0565
ATCAGGAT	0.00197
ACCCTAGA	-0.0511
CAGTTTTA	0.0909
ACTAAAGA	-0.0289
AGTTACCC	0.0144
GACGCTGC	-0.124
GCCAATGA	-0.109
CTTACCGC	-0.164
AGACGCAG	0.0691
ACTCAACA	0.0625
GGACCGCA	0.0585
CGTGAGGA	-0.0845
CTACCAAC	0.0696
GAGGACTC	-0.078

Sequence	PBM E-score
CCGTTTGC	-0.0433
AACTCCTA	-0.112
AGATATTG	0.0827
GTACCTGA	0.149
TATAAGCA	0.028
AAGCACTG	0.142
GTAGTTCA	0.0427
CAAGGCAC	-0.165
CTGTGGAC	0.178
CCCCGGGC	-0.292
AGAAGTTG	0.0264
AGTGGGGG	-0.403
TAATGTGA	-0.0875
ATGGAGCC	-0.177
CAATCCTC	-0.244
ACGAATCA	0.13
CGGCCATC	-0.244
AATATGCT	0.015
TGACGCAA	-0.0603
AACTGCAT	0.0756
AATACTGT	0.202
AACCTGAT	-0.123
CACCGGCG	-0.0464
GGCAGAGA	-0.00515
AATATAAG	0.236

Sequence	PBM E-score
CCAGCTTA	-0.0408
AAGGGTTA	-0.193
GCGCCCCC	-0.327
CCGTCGAG	0.139
ATTTTGCG	-0.0384
AAATAATT	0.262
ACGGGGGG	-0.324
AATATTCC	0.278
AATGAACC	0.0209
ACCACCGT	-0.00443
CGGCGCAC	0.106
CCGAATGA	0.162
AGCCTCAC	-0.223
GCTCTGTA	-0.104
AGTAAAAA	0.0285
CTACGCTC	-0.183
ATCTCCTC	-0.137
AGTAGGGA	-0.00438
CGTACGAG	-0.0311
CGTTTGAA	0.0138
CTATGAAG	0.0298
AAGGTGGC	-0.0935
GCGTGAAC	-0.0995
ATGCGCAT	0.299
ATCGGGCG	-0.0473

Sequence	PBM E-score
CGATGAGC	-0.17
AATAGTAC	0.0765
ACCCGGCA	-0.0951
GACGCCGC	-0.1
CCGCAATA	0.0969
CAACAAAG	0.00876
GATACGAA	0.0137
ACAGTACG	-0.102
CAAATCGA	-0.00221
ATACGTTC	-0.14
ACTCTATC	0.0167
GGTGCTTA	0.00083
AGTCCTTA	0.177
CCGTTAAA	0.00335
CTCAGAAC	0.0291
CACAGCCG	0.0176
AACATCGA	0.0685
GCCAGGGA	-0.262
ATCACAAA	0.0717
GGGGTAAC	-0.127
CGGTTCAA	-0.161
AGCGTGGA	-5e-05
ACAGGCTC	-0.0946
ATTGCTAG	0.0816
GGAGCTCA	-0.0253

Sequence	PBM E-score
GGCACACA	0.0778
CGTGTTAA	-0.00332
CATCCGAG	0.0778
CGTGCCAC	-0.0683
GCTTTCAA	0.079
CGGCTACG	-0.306
ACAAAGGG	0.125
GAGTCTAA	-0.0703
CGACAGAA	0.167
ATGTTTAA	-0.0496
AGAGAACG	-0.0915
AGAAGTCA	0.06
ATACTGTC	0.112
AGGCGCGC	-0.0129
CTCCTGCA	-0.33
GACAGAGC	0.0447
AGGGAAAA	0.0219
AAAAAGGG	0.00357
AGAGGGTC	-0.179
AACTGGGA	-0.00988
GCTACCCA	-0.156
CTGCATTC	-0.109
AAGTCGTC	-0.0133
CAACACAC	0.134
TACCCCTA	-0.142

Sequence	PBM E-score
CGCAAGCG	-0.164
GGTCGGAC	0.1
AGCCGTTC	-0.278
ATATCAAA	0.0618
TAGATCTA	-0.014
AGTGTAGA	-0.102
ACTCGATG	0.0509
CGCAGGGA	-0.161
CAGGCCTG	0.0727
CCTCAGGA	0.0452
ATCTAGAA	0.0372
CCTTCTGA	-0.104
ACTCTTTC	-0.00101
GCTCGCAA	0.076
AAAACCCA	0.0857
ACTGGGTG	-0.104
CCCCAAAA	0.209
ATATACGG	0.147
CTTCGTAA	0.0853
CCTAATAA	0.28
CATCTAGG	-0.109
ATGATAAA	0.194
ATAAGCCC	-0.245
GGATACGA	-0.00578
AAGCCGTA	-0.0189

Sequence	PBM E-score
GTGGGTCA	-0.23
AAGGCATA	-0.111
AAGGCAGT	-0.0959
GATATCGC	0.014
ACGCATGG	-0.138
ACGTACGG	0.0575
AGACCGAA	0.0537
GAATAGAA	0.102
CTGCTAAG	-0.166
CGAGGGCA	-0.197
GCACACGA	0.00337
ATCGCTAA	0.0831
ACACAACG	-0.017
ATCGGTGC	0.124
AATCATTC	0.0947
ACTAGACC	0.0586
AACTCGCC	-0.0314
CACCTGTA	-0.15
GGAGGCAC	-0.0207
ACTTACCG	0.141
ATACAAAG	0.254
CTAGGGTC	-0.211
